Test results published in the supplement of paper PMC10126150.
Sequences with one replicate were seen in a single cluster, so their values are uncertain.

test system: ATP; assay: switch fluorescence ratio, 500 uM ATP over buffer (Cy3 cluster intensity, sum of 5 cycles each) (fold (ratio)); higher = stronger signal-on switching upon ATP binding; sequences stand for … in TCGTCGGCAGCGTCAGATGTGTATAAGAGACAGTTTTTTTTTTTTTTTTTTTTTTTTT…TC; conditions: aptamer strand: ATP DNA aptamer (quencher-CACCTGGGGGAGTATTGCGGAGGAAGG + anchor), 100 nM annealed; ATP concentration: 500 uM; one replicate
Method in brief: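 Values give the fluorescence ratio for each switch-domain sequence, averaged from per-cluster ratios of summed target-cycle to summed buffer-cycle Cy3 intensity. The Cy3-labelled switching-strand clusters sat on a modified Illumina MiSeq flow-cell, were annealed to 100 nM quencher-labelled ATP aptamer, and were imaged in selection buffer, then after 15 min with 500 uM ATP at 22 °C. Five cycles ran with NaOH stripping and re-annealing between them, and clusters outside 100-1000 RFU were excluded.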
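Note: ATP exposure 15 min at 22 °C before imaging.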

| Sequence | switch fluorescence ratio |
| --- | --- |
| GGTAAGGCGG | 0.965 |
| GCTAGATTGC | 0.997 |
| GCCACTTAGC | 0.988 |
| TCCTAATTAT | 1.05 |
| GCGAATGGGG | 1.04 |
| CGCCCAATCT | 1.98 |
| CATAAGAATC | 0.976 |
| CTCTTGAGTG | 0.986 |
| CGAAGCACTG | 2.23 |
| ATCTATTTTA | 1.02 |
| GGGGAGTCC | 1 |
| CACGTTGCAA | 0.953 |
| CTAATTAGTT | 1.01 |
| TTCTCTACAA | 1.42 |
| TTCAGCGACA | 1.04 |
| AACGTAAGTT | 1 |
| AATAAGAACC | 1.06 |
| GGGATGCAAT | 0.982 |
| ACATGTGCGG | 1.04 |
| AATTTTTAA | 0.981 |
| ATCCTATACT | 1.07 |
| GTTGATCTCT | 1.02 |
| CGACAGCACT | 2.6 |
| ATAGATCATT | 0.999 |
| ATACTGGCG | 1.11 |
| CTGTTTCAAT | 0.984 |

| Sequence | switch fluorescence ratio |
| --- | --- |
| TGGGAAAATA | 1.01 |
| ATTCGGATCA | 0.979 |
| GAGCTTCATC | 1.04 |
| GGCAAACTTT | 0.981 |
| TCGGACGTA | 1.08 |
| GATCGATTCG | 0.963 |
| AATCATAGGA | 0.963 |
| CTCATCAGGA | 1.01 |
| AGTATATCTC | 1.04 |
| TCATGTTAGC | 1.07 |
| CTCGTGTCTG | 1 |
| CGAGATGAGA | 1.04 |
| GGACCGTTGT | 0.993 |
| ATACGGGTT | 1.02 |
| AATATTCCTA | 1.01 |
| ATTTCGGGC | 0.98 |
| CAGGGGAGAC | 0.988 |
| CACGGCCTTG | 1.01 |
| TAAAGCCAAG | 0.991 |
| CGTCGCCAGT | 0.996 |
| CTAATACGG | 0.975 |
| GCTAATCAGG | 1.03 |
| AACGATTTAG | 0.967 |
| CTGACAACGT | 1.04 |
| TGAAAAAGTC | 1.06 |
| GCCGTGGTTG | 0.958 |

| Sequence | switch fluorescence ratio |
| --- | --- |
| GCGTGGGGCA | 0.955 |
| TTGCGTGC | 1.02 |
| CTCAGTCGTT | 1.03 |
| CCGTATTAAT | 1.17 |
| ACATGTGCTC | 0.98 |
| GCCCCTGCCG | 0.984 |
| CGGGCGTAGC | 1.1 |
| TTACAGTGCT | 1.04 |
| TACGCAATT | 2.28 |
| CATGTGTCAT | 0.996 |
| CTAGCGCAT | 1.79 |
| AAGCTGGGT | 0.99 |
| ACGGACATTT | 1.24 |
| GCTGATCATG | 1.01 |
| CGCGGCACTT | 1.02 |
| ATGTGATGGG | 1.02 |
| TAACATCGGG | 1.05 |
| TCGCGCGGAT | 1.04 |
| CATTGACTGT | 1.16 |
| TTAAAGTTCG | 1.05 |
| AAGGGATGTT | 1 |
| AAATATGGAG | 0.952 |
| ATGCCACCTC | 1.03 |
| TCAATCCAGT | 1 |
| TCGAATATCG | 0.966 |
| CAGGGTCGCT | 0.998 |

| Sequence | switch fluorescence ratio |
| --- | --- |
| TAATCTCGTG | 0.945 |
| AATTTCTAAG | 0.947 |
| GGCAAGTTT | 1.03 |
| CTCCTTGGAC | 1.47 |
| GATGACTCCG | 1.19 |
| CGAGTTACAG | 1.02 |
| AGCGTAAGCT | 0.994 |
| AACCGGCTGA | 1.06 |
| TATGCGAAAT | 1.04 |
| CCTTTATTGT | 1.02 |
| AAGGTGTAGG | 1.06 |
| TACGTCGGCG | 0.991 |
| CAAACCGCAG | 2.08 |
| GGGGTGTCCC | 0.972 |
| CTTAGCACAT | 1.26 |
| CCACCGCTT | 4.52 |
| GGAAATCTGT | 1.05 |
| CACACGGAA | 1.23 |
| ATGCATCGGT | 1 |
| TTCAATGCG | 0.999 |
| TACTAGAGGG | 1.02 |
| TTGTACCTTA | 1.13 |
| TGGGACTTAT | 0.998 |
| TTTTCACTGC | 1.04 |
| AATTATTCTC | 0.983 |
| GGGATTTAGA | 1 |

| Sequence | switch fluorescence ratio |
| --- | --- |
| TCGGTGCTAA | 1.03 |
| CATTTAACAA | 1.02 |
| ATGACGAATG | 1 |
| AGTATATTCC | 1.11 |
| CGTGATCCGC | 1.3 |
| AACCCTCAGG | 1.3 |
| CAGCCATAGA | 0.976 |
| AGAACGTCGA | 0.995 |
| CTGGAGATTG | 1.02 |
| GAAGTCAGAT | 1.02 |
| TGACGATCAT | 1.02 |
| AACCCTCGCT | 1.12 |
| CAAACTGAAA | 0.998 |
| TCATCGCGGT | 1.26 |
| ACATTAAGTC | 1.06 |
| GACGGGTAGT | 0.997 |
| TGTTGTAGCA | 0.983 |
| CAGGCCCAGC | 0.983 |
| GGAAATGTTA | 0.966 |
| TAATGGTGTA | 1.01 |
| TGTATCCCGG | 0.989 |
| AATATGGCTG | 0.962 |
| GCAGTAATAA | 3.19 |
| TTCGCTATCT | 2.16 |
| CGTATACAGA | 0.968 |
| ATGCGGGGTG | 0.995 |

| Sequence | switch fluorescence ratio |
| --- | --- |
| ACCTTATAAC | 1.02 |
| GCTGCGTGTT | 0.989 |
| GACATCGCGA | 0.975 |
| ACGCTGAGCC | 1.05 |
| GCGGTAATTA | 1.01 |
| TTAGGTACT | 1.02 |
| TAAAACACGT | 1.05 |
| TCTAAAAATC | 1.04 |
| GAGCGATGTG | 1.03 |
| ACCTTTCAAT | 1.06 |
| AGTTTTGGTT | 0.948 |
| GGCTGTAGTT | 0.957 |
| CGCGTCGCGT | 0.994 |
| CACTATGTAT | 0.977 |
| GCCCTTTAGC | 0.998 |
| GCCCTGCATC | 1.04 |
| TGTTGGACC | 1.04 |
| GTGGCAGCAC | 1.02 |
| GTGAAGTAGT | 1.02 |
| GGGTGATTAG | 0.958 |
| GGGAGGGATT | 0.985 |
| AAGGAGTTAC | 1.02 |
| ATACGCTGAT | 1.1 |
| GCCAGCGCCA | 1.07 |
| GTGTCAAGGT | 0.953 |
| AGTCGCACAG | 1.01 |

| Sequence | switch fluorescence ratio |
| --- | --- |
| TCCGGAACAG | 1.29 |
| CCTTGTACGT | 1.05 |
| AGTGCTTGA | 0.985 |
| GCCATAAGGA | 1.01 |
| ATAGCATGG | 1.03 |
| ACTCGCCGG | 1.11 |
| TGTTACAGGC | 0.946 |
| CGACTTGAAT | 1.06 |
| GCCCGGAGAG | 1.12 |
| CACGAAGCTG | 1.13 |
| GAGGTTTGGT | 0.982 |
| TTATCAAGCC | 0.962 |
| GGACAAAGGA | 1.05 |
| CCATACACTC | 1.05 |
| TTGGAAGAT | 0.982 |
| AAGCATACGG | 1.33 |
| AGGCTTTTCC | 1.02 |
| TTACACAAGA | 1 |
| TGTGCCCGAT | 1.01 |
| TAACCGAGCA | 1.28 |
| ATTAAAACTG | 1.09 |
| GGCCCCGTGT | 1.05 |
| GGTCCAAGGT | 0.993 |
| TCTTGCCGTA | 0.987 |
| CTTAAATGTG | 1.02 |
| GTGCTGGGTT | 1.03 |

| Sequence | switch fluorescence ratio |
| --- | --- |
| TTAACGAGTA | 1.07 |
| ATAGAAACAA | 1 |
| CTATGTGAAA | 0.934 |
| ATTTTAGGTG | 1.2 |
| ATGGGGCGGA | 0.981 |
| AAAAGTATCC | 1.14 |
| AAGCAGCCTT | 1.06 |
| GGATTACCCG | 1.03 |
| GATTTTTTCA | 0.986 |
| CAAAGACGAA | 1.03 |
| CACTTCCAGC | 1.17 |
| GTAGAATCCT | 1.07 |
| AGTGGATTTG | 0.986 |
| ACATAGCGTG | 1.03 |
| CCGAGTCTCA | 1.18 |
| TAATAGAGAA | 0.971 |
| TTGACCTCAG | 1 |
| CTGTAACGAC | 1.16 |
| AAATAGATCT | 0.999 |
